According to the supplement of paper PMC10126150:
Sequences with one replicate were seen in a single cluster, so their values are uncertain.

Tested on: ATP
Test: switch fluorescence ratio, 500 uM ATP over buffer (Cy3 cluster intensity, sum of 5 cycles each) (fold (ratio)); higher = stronger signal-on switching upon ATP binding; sequences stand for … in TCGTCGGCAGCGTCAGATGTGTATAAGAGACAGTTTTTTTTTTTTTTTTTTTTTTTTT…TC
Conditions: aptamer strand: ATP DNA aptamer (quencher-CACCTGGGGGAGTATTGCGGAGGAAGG + anchor), 100 nM annealed; ATP concentration: 500 uM; one replicate
Outline: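 Cy3-labelled switching-strand clusters on a modified Illumina MiSeq flow-cell were annealed to 100 nM quencher-labelled ATP aptamer and imaged first in selection buffer, then after 15 min with 500 uM ATP at 22 °C. NaOH stripping and re-annealing separated each of five buffer/ATP cycles, and clusters outside 100-1000 RFU were excluded. The fluorescence ratio sums target-cycle Cy3 intensity over buffer-cycle Cy3 intensity per cluster and averages it per switch-domain sequence.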
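Also: ATP exposure 15 min at 22 °C before imaging.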

Sequence | switch fluorescence ratio
AAGTTACTTA | 1.08
GCATGGGGA | 1.05
TGGTGCCTGT | 0.979
AAGAGTCAAT | 1.06
CACTATCTTT | 1.04
GTGCCGCCGA | 1.03
GGTGGAAGAC | 0.989
CCAATGACGA | 1.02
CTTAACAGGG | 0.956
CCGTAAGTAA | 4.4
AGCCCCGCCT | 1.53
AGGCGCGGGG | 1.02
TGTGTCATAT | 0.974
TGCTATAATA | 0.961
CAGGCGGGAT | 1.03
AGAATTACGC | 1.07
AAACTATATG | 1.03
GGTGGGACTG | 1.01
GGTGCAGCC | 0.991
CGCGTTATCT | 1.01
GTTAACCCGA | 0.985
AAGCCGAGTT | 0.976
CTAAGGATCT | 1
GAGTATCCAA | 1.01
CACGTTCCGG | 1.06

Sequence | switch fluorescence ratio
CCAGCTGGAA | 1.01
AGTAGTGCAA | 1.24
AAAGGGGACT | 1.01
GCGAACTAAG | 1.01
TACACTACA | 1.32
GGATATAGTA | 0.949
AGGTTCTTTA | 0.983
GGCTCCTATA | 1.04
TTTAGCGGTA | 0.982
TCTTAGTGCA | 1.01
TCTGTTATTC | 1.06
AGCCAGGAGG | 0.995
CCCTTCTTG | 1.05
TCACACGGAT | 1.01
AGGGCTGTGG | 1.04
ACCGTTCGGG | 0.974
AACGGTTACT | 1.25
AACGTTACAG | 1.28
TTGAGCCAAT | 2.19
GTAGTCGGCA | 1.02
GGATTATACC | 1.03
ACGTAGACCT | 1.25
TCGTGGGCAT | 1.06
CCCTAACGGC | 1.07
GACATCTGGA | 1.04

Sequence | switch fluorescence ratio
TATTTTAACG | 1.02
AACCAGAACT | 1.02
GGCGGTAGC | 0.966
TCGTTAAAGG | 1.66
GCCCCAGCGG | 1.19
ATAGGTTCCT | 1.01
TCGATTGTTG | 0.965
GGTTGCGTAT | 1.01
ATGCGCATCA | 0.965
GCAAGAAACC | 1.02
TTATACCTGC | 1.02
AAGGGGAAAC | 1.07
ACATGGTGGG | 1.02
TCGACCGCCC | 2.25
ACTGGTTCAT | 1.03
TTAAGGCTCT | 1
GGGGGGCCAA | 1.02
TCTACGTCCC | 1.14
CATTCATGCG | 0.999
AGACCGGCAA | 1.23
TAACCACATC | 1.11
TCTGGAGGTG | 1.03
TTAGAAAATT | 0.991
CTTGCTAGC | 0.995
CGACGCTGTA | 1.4

Sequence | switch fluorescence ratio
CTTATGTTTG | 0.938
CGAATGGTAT | 1
CAATTCTACC | 1.47
TAGATGCTGA | 0.982
ACGCGGTTGC | 1.07
ATTAATGGCT | 1.08
GGGGCGGTAA | 1.04
ATCAAGGCTG | 1.14
GCGATTTTCC | 1.13
GATGGTTGCC | 0.99
GAGAGAAAAA | 0.988
ATCCAACTAT | 1.02
GGGTGGGATC | 0.974
CACTTTCTTA | 0.997
TTTGATTATG | 1.02
TCCCTGTGTG | 1.74
GGTGCCGCCA | 1.02
CGCGTATCGT | 0.959
GAATTGTCGT | 0.977
TCCGGAGACT | 2.28
TTGCGGCCTG | 1.06
CCCAATGCTA | 2.8
AGTATAGATA | 1.02
CTCTGCCCGC | 2.01
CAGTGCTA | 1.01

Sequence | switch fluorescence ratio
CTATCAGTTT | 0.982
AGGATATCCC | 1.01
GGGCGCTTGG | 1.02
GGCAACAATC | 1.01
TCTTTCTGGC | 0.91
AGGCGGACT | 0.994
ACGAGGAGCA | 1.03
CGGTTAACT | 1.06
TCCCGCTGGT | 1.06
TTCTGAGCAC | 1.53
GATTCTCGCT | 0.986
GATTCAAGTA | 0.94
ATGAGCCAAA | 1.03
GTTGTCCGTC | 1.02
AATGTTGTGT | 0.986
GTACTCAGGT | 1.03
GACGTCTTTA | 1.01
TATGTCTTCG | 1.03
AGAATATTTC | 0.991
TCGGTACGCT | 1.03
TTTGCTTGAC | 1
ACTCTAGGTT | 1.03
ACTGTAGCGG | 1.06
CATCTCCAGC | 1.13
TGCTGGCGAA | 1.02

Sequence | switch fluorescence ratio
GAATCTGGAC | 1.04
AGACGTAGAT | 0.994
GGTTACAGGA | 0.936
CAGTATGATA | 1
TGAGGGCTGT | 1.04
AAGTGCCAGT | 0.974
ATTGACTCAA | 0.965
GCTGCGCA | 1.1
GTGGCGTTAG | 0.986
CGAAGGAAAA | 0.989
CGAATCGCCC | 1.08
CAACCGACGG | 1.05
TATCTCGCCA | 1.07
GTAAAGGACA | 1.27
TAGTCAGCCG | 0.882
TTGTTGGC | 1.05
CGGTAGAATT | 0.974
TTCTAGAATG | 0.971
TTAATAGACC | 1.07
CACTGCTTCA | 1.06
GGCTGGTGTC | 1.06
GCCCTGCAAA | 1
ATACGTATGT | 1.01
CGGGGTTCTA | 1
CAGTCTCAGT | 0.998

Sequence | switch fluorescence ratio
GTTTGGCGCA | 0.974
ATCGAGATAT | 1.06
TGGGTGCAGG | 1.06
AGGGGTGTCA | 0.984
TCCCTCTCTT | 1.04
CCTTAATTAT | 1
GCCCCTTTGT | 1.01
CCAGAAACT | 1.07
AATGGTTACC | 0.992
ATCCGTGGGC | 1.26
AGCTTGAATG | 1.01
GGTGTGTTAC | 0.96
CTCTGTTGAG | 0.983
TGTTATGGAA | 1
GTATCCTAGT | 0.976
ATCAATGCTA | 1.03
AGTAGCTAGT | 0.964
TTCAGAGAGG | 1.02
GTGAAAGAGG | 0.981
TCGAGATATT | 1.02
CTTGAACCGC | 1.24
TCGCGCAACG | 0.995
TCCATCATCC | 1.09
TGCCAAATAT | 0.965
GGTGACGGGG | 1.01

Sequence | switch fluorescence ratio
TTCTACTTCT | 1.04
TGTGCATGTG | 0.996
AGGGGCGCGT | 0.968
TGAGAACGAT | 1
TGGAAGAAGC | 1
GGCAATGGCA | 0.991
GAAAAGCGAG | 0.943
ACATGCTGTG | 1.02
CTGATTGGGG | 0.962
CAGTCGTTAT | 0.994
AAGAAGACG | 0.985
TGTTCTGGTC | 0.997
GTCCAACAAT | 1
CCTAATTAAA | 0.992
CTCTTCGCTT | 1.45
CAAACTACCG | 1.01
ACACCGGGTG | 1.32
CAGTTCCTAC | 0.983
CGCTCCGGCG | 1.03
GTTTCCCACG | 1.08
CATTAGGAAC | 1.03
GCGTGTTTGC | 1.04
GTCCTTATGC | 1.04
AAGTAATGTA | 1.04
TAAGGAAAA | 0.991
